# Laboratory results reported in patent US9833497B2, “Human originated EGF domain proteins and use of the same” (CHENGDU SOURCEBIO LIMITED-LIABILITY COMPANY, priority 2013, dated 2017).
# B1: PRT861 (protein, listed as Homo sapiens)
# chain: CSCNGHARRCRFNMELYRLSGRRSGGVCLNCRHNTAGRHCHYCREGFYRDPGRALSDRRAC
# B2: PRT867 (protein, listed as Homo sapiens)
# chain: CSCNQHARRCRFNSELFRLSGGRSGGVCERCRHHTAGRHCHYCQPGFWRDPSQPIFSRRACRA
# How the values were obtained:
# Format in all cases: cell-based
# [1] = test system: E. coli DH5α; test: Antibacterial activity: MIC and growth curve against E. coli DH5α in 96-well plate; details: minimal inhibitory concentration against E. coli DH5α, 5×10^5 CFU/mL, 37° C., judged after 8 h
# Procedure: 1. E. coli DH5α was exemplified. E. coli DH5α was streaked and cultured on LB solid medium. Then, a typical clone was picked and inoculated into common LB liquid medium, cultured at 37° C. with shaking at 185 rpm until the logarithmic growth phase was reached (OD600 of about 0.5). The bacterial culture was centrifuged at 4000×g for 3 min, the supernatant was discarded, and the thalli were resuspended with fresh LB medium.
# 2. The above-mentioned bacterial suspension was diluted and inoculated into a 96-well plate with the total volume of 100 μL per well and a bacterial count of 5×10^5 CFU/mL.
# 3. The recombinant protein hF VII-EGF1 was added to the above-mentioned wells with the final protein concentration in the well of the highest protein concentration being 50 μg/mL. Basing on this final concentration, a two-fold serial dilution was performed till a protein concentration gradient consisting of 50, 25, and 12.5 μg/mL was set up. Three parallel wells were set up for each concentration in the gradient.
# 4. […] Samples were taken every 30 min, the absorbance values were determined at 600 nm wavelength under a ultra violet spectrophotometer, and an inhibition curve was plotted. […]
# According to the experimental procedures in Example 14, the minimal inhibitory concentrations (MIC, μg/mL) of the other human-originated EGF domain proteins (PRT2 to PRT1498 in Table 1) for E. coli DH5α were determined.
# [2] = test system: E. coli BL21; test: MIC against Gram-negative bacteria: E. coli BL21; details: E. coli BL21; 10 h cultivation at 37° C.; 5×10^5 CFU/mL
# Procedure: (§1) 1. Gram-negative bacteria, such as E. coli BL21, Pseudomonas aeruginosa, Klebsiella pneumonia, Enterobacter cloacae, Aeromonas hydrophila, Citrobacter diversus, Moraxella catarrhalis, Proteus mirabilis, Proteus vulgaris, Serratia marcescens, etc were streaked on solid LB medium and cultured respectively. Then, typical clones were picked, inoculated into common liquid LB medium respectively, and cultured at 37° C. with shaking at 185 rpm until the McFarland specific turbidity was 0.5. The bacterial culture of each of Gram-negative bacteria was centrifuged at 4000×g for 3 min, the supernatant was discarded, and the thalli were resuspended with fresh LB medium.
# (§2) 2. The above-mentioned bacterial suspensions were diluted and inoculated into 96-well plates with the final concentration of the bacterial suspension being 5×10^5 CFU/mL per well.
# (§3) 3. Each of the purified human-originated EGF domain proteins (PRT1 to PRT1498 in Table 1) was added to each of the above wells and subjected to two-fold serial dilution in concentration. Three parallel wells were set up for each concentration in the gradient.
# (§4) 4. The above-mentioned 96-well plates were placed and cultured at 37° C. in shaking incubator shaking at 175 rpm. […] The minimal inhibitory concentration MIC is defined as the lowest concentration of the recombinant protein at which there is no growth of the bacteria.
# [3] = test system: Pseudomonas aeruginosa; test: MIC against Gram-negative bacteria: Pseudomonas aeruginosa; details: P. aeruginosa; 10 h cultivation at 37° C.; 5×10^5 CFU/mL
# Procedure: as §1, §2, §3, §4
# [4] = test system: Klebsiella pneumonia; test: MIC against Gram-negative bacteria: Klebsiella pneumonia; details: K. pneumonia; 10 h cultivation at 37° C.; 5×10^5 CFU/mL
# Procedure: as §1, §2, §3, §4
# [5] = test system: Enterobacter cloacae; test: MIC against Gram-negative bacteria: Enterobacter cloacae; details: E. cloacae; 10 h cultivation at 37° C.; 5×10^5 CFU/mL
# Procedure: as §1, §2, §3, §4
# [6] = test system: Aeromonas hydrophila; test: MIC against Gram-negative bacteria: Aeromonas hydrophila; details: A. hydrophila; 10 h cultivation at 37° C.; 5×10^5 CFU/mL
# Procedure: as §1, §2, §3, §4
# [7] = test system: Citrobacter diversus; test: MIC against Gram-negative bacteria: Citrobacter diversus; details: C. diversus; 10 h cultivation at 37° C.; 5×10^5 CFU/mL
# Procedure: as §1, §2, §3, §4
# [8] = test system: Moraxella catarrhalis; test: MIC against Gram-negative bacteria: Moraxella catarrhalis; details: M. catarrhalis; 10 h cultivation at 37° C.; 5×10^5 CFU/mL
# Procedure: as §1, §2, §3, §4
# [9] = test system: Proteus mirabilis; test: MIC against Gram-negative bacteria: Proteus mirabilis; details: P. mirabilis; 10 h cultivation at 37° C.; 5×10^5 CFU/mL
# Procedure: as §1, §2, §3, §4
# [10] = test system: Proteus vulgaris; test: MIC against Gram-negative bacteria: Proteus vulgaris; details: P. vulgaris; 10 h cultivation at 37° C.; 5×10^5 CFU/mL
# Procedure: as §1, §2, §3, §4
# [11] = test system: Serratia marcescens; test: MIC against Gram-negative bacteria: Serratia marcescens; details: S. marcescens; 10 h cultivation at 37° C.; 5×10^5 CFU/mL
# Procedure: as §1, §2, §3, §4
molecule,measurement,setting,value
B1,MIC,[1],12.5 µg/mL
same,MIC (μg/mL) E. coli BL21,[2],12.5 µg/mL
same,MIC (μg/mL) P. aeruginosa,[3],12.5 µg/mL
same,MIC (μg/mL) K. pneumonia,[4],25 µg/mL
same,MIC (μg/mL) E. cloacae,[5],12.5 µg/mL
same,MIC (μg/mL) A. hydrophila,[6],25 µg/mL
same,MIC (μg/mL) C. diversus,[7],12.5 µg/mL
same,MIC (μg/mL) M. catarrhalis,[8],25 µg/mL
same,MIC (μg/mL) P. mirabilis,[9],12.5 µg/mL
same,MIC (μg/mL) P. vulgaris,[10],25 µg/mL
same,MIC (μg/mL) S. marcescens,[11],12.5 µg/mL
B2,MIC,[1],50 µg/mL
same,MIC (μg/mL) E. coli BL21,[2],25 µg/mL
same,MIC (μg/mL) P. aeruginosa,[3],12.5 µg/mL
same,MIC (μg/mL) K. pneumonia,[4],50 µg/mL
same,MIC (μg/mL) E. cloacae,[5],25 µg/mL
same,MIC (μg/mL) A. hydrophila,[6],12.5 µg/mL
same,MIC (μg/mL) C. diversus,[7],25 µg/mL
same,MIC (μg/mL) M. catarrhalis,[8],50 µg/mL
same,MIC (μg/mL) P. mirabilis,[9],25 µg/mL
same,MIC (μg/mL) P. vulgaris,[10],12.5 µg/mL
same,MIC (μg/mL) S. marcescens,[11],50 µg/mL
